Some of the results follow. The list includes weakly bound sequences.

Experimental findings from PMC4242493 are described below.

In the experiment the target is MaxL homodimer (UniProt P61244). The experiment can be described thus: universal protein-binding microarray (PBM). The note with it: PBS-based mixture, 10 nM His-tagged protein dimer, 2% milk, 200 ng/uL BSA, 50 ng/uL salmon testes DNA, 0.02% TX-100; detection with Alexa 488 anti-His …; high values mean tight binding; most listed sequences are background and not binding sites; double strand, one strand shown.
Sequence of UniProt P61244 (P61244 whole entry): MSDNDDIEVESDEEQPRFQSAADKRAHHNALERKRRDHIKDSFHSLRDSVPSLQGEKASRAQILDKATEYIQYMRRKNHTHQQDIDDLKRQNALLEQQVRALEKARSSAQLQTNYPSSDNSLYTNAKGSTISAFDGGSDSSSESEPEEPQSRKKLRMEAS
For GCCCGCGC, the binding signal (normalized occupancy) was found to be 0.0686.
With AATCTTCA the figure was 0.072; with CTCAACCC, 0.072; with CGCACGGC, 0.0756.
The figure for CTGGGCAC is 0.0695.
On to ACGGCTAA, for which the binding signal (normalized occupancy) came to 0.0725.
As to CAATATAC, the binding signal (normalized occupancy) came to 0.0795.
The figure for CCGGCGAG is 0.0683.
Consider TACTCATA, for which the binding signal (normalized occupancy) came out at 0.0778.
Turning to GAAGCGGA, the binding signal (normalized occupancy) was found to be 0.0695.
With ACGGCGTG the figure was 0.0958.
The figure for AAGCTTCG is 0.0681.
The figure for GCCGTCAC is 0.0701.
As for TAGATATA, the binding signal (normalized occupancy) was found to be 0.0862.
In the case of GGAAATAC, the binding signal (normalized occupancy) turned out to be 0.0757.
With ACGTTGGG the figure was 0.0801.
Consider GATTAATA, for which the binding signal (normalized occupancy) stood at 0.0826.
As for CTGCAATA, the binding signal (normalized occupancy) was determined as 0.0719.
As for GCTCGGAC, the binding signal (normalized occupancy) is 0.0706.
In the case of CCTCGCAA, the binding signal (normalized occupancy) was 0.0727.
The figure for ACCCGAGG is 0.0767.
The figure for AAGAGTAC is 0.0695; for ATGAAGGC it is 0.0738.
As for AACTGTCT, the binding signal (normalized occupancy) was 0.0701.
As to AGTCAACT, the binding signal (normalized occupancy) is 0.0744.
With CCCGCTGA, the binding signal (normalized occupancy) was 0.0751.
With AGGTCAGC the figure was 0.0718.
The figure for AAGTGGCT is 0.072; for CCCCAACC it is 0.0744.
With CTCAAATC the figure was 0.0779; with CCAATGAA, 0.0693.
On to GGTGCAAC, for which the binding signal (normalized occupancy) turned out to be 0.0718.
The figure for ACTCTTTG is 0.0732; for GGCCGGAA it is 0.0659; for AGTTTACG it is 0.0705.
The figure for AGCAGTCA is 0.0745; for GACAGCCA it is 0.0726.
The figure for AATCATGG is 0.0832; for CTTCCTAA it is 0.0757.
As for ACGTAGTG, the binding signal (normalized occupancy) was 0.0792.
As for AACTTAAC, the binding signal (normalized occupancy) was determined as 0.0733.
The figure for TGGTGGAA is 0.0731; for CAAGTGTA it is 0.0832.
With AATGCGTC the figure was 0.0736.
With GCACTACA, the binding signal (normalized occupancy) is 0.0815.
The figure for GATGCACA is 0.0921.
As for ACCCCCGA, the binding signal (normalized occupancy) is 0.0852.
The figure for AACCCACA is 0.082; for AAAAAGTG it is 0.0735; for AGTGACTA it is 0.0719.
Regarding CCTCACCA, the binding signal (normalized occupancy) is 0.0806.
The figure for TACAGAAA is 0.0827; for GTCGCTAA it is 0.0691.
In the case of CTGGCAAC, the binding signal (normalized occupancy) was 0.0708.
With GTTTCTGA the figure was 0.074; with TCACTCCA, 0.0796; with ATTAATGA, 0.0803.
With TAATATTA the figure was 0.0831; with AAGCGTGG, 0.121; with GAGGCTCC, 0.0715.
ACTCACCA: the binding signal (normalized occupancy) came out at 0.0753.
Take ATAGCGTG: the binding signal (normalized occupancy) turned out to be 0.104.
As to TGATTCAA, the binding signal (normalized occupancy) is 0.0777.
The figure for TCCCACGA is 0.0838.
As to CTAGGGCA, the binding signal (normalized occupancy) was 0.0657.
With GGACGTCC the figure was 0.0681; with ACCGGTAC, 0.0688.
With AAATCTGT the figure was 0.0754; with GGGGGGCA, 0.0847.
The figure for CGTATTGA is 0.079; for GAAGTCAC it is 0.0814; for ACTTGAAA it is 0.0709.
Turning to ACAAGGAC, the binding signal (normalized occupancy) is 0.0809.
With CCTCAGAA the figure was 0.0763.
The figure for CCTAATCG is 0.0698; for ACCTCTTC it is 0.0763; for GGCATCCC it is 0.0791.
With ATTCTGAG the figure was 0.0732.
Regarding GCTGGCTA, the binding signal (normalized occupancy) amounted to 0.07.
As for GACGTCTC, the binding signal (normalized occupancy) was 0.0719.
For AACAAATG, the binding signal (normalized occupancy) came to 0.0771.
With ATCATCAA the figure was 0.0756; with ATCGCCTA, 0.0745.
The figure for CAAACCAG is 0.072; for CAGGCCTC it is 0.0728.
The figure for AGGCCAGC is 0.0697.
In the case of ACAAGACT, the binding signal (normalized occupancy) came to 0.0738.
As for CACTGTAC, the binding signal (normalized occupancy) came to 0.0769.
In the case of AGCAGATG, the binding signal (normalized occupancy) came to 0.0826.
With CCTGGGAA the figure was 0.0702; with CTATGACC, 0.0793; with GCCGATCA, 0.0731.
With AATACATC the figure was 0.0794; with AATAGTCG, 0.0712; with ACCCTGGG, 0.0725.
With GATCATGC the figure was 0.101; with AACCAGTG, 0.0744.
Take GAGATACA: the binding signal (normalized occupancy) turned out to be 0.0779.
With AAGCAGGC, the binding signal (normalized occupancy) was 0.075.
With AAAACTGG the figure was 0.0704; with CCGCGCTA, 0.0732.
With CAGCTTCA the figure was 0.0678; with CGCTAGAG, 0.0701; with AGAACCCG, 0.0723.
With AGCTAGGC the figure was 0.0696; with ATCCTCTG, 0.0778; with ATCTATCA, 0.0812.
As for GGCTTTGA, the binding signal (normalized occupancy) was 0.0672.
With CGCTGTTA the figure was 0.0766; with AGAACGAG, 0.0846.
With CCAATGGC the figure was 0.0707; with AGTGCTGA, 0.0722; with TCTATCAA, 0.0789.
The figure for AACTGCTG is 0.0663; for CCCTGCCC it is 0.0787.
With CCAGTAGA, the binding signal (normalized occupancy) came to 0.0743.
With GACAACTA the figure was 0.0752.
On to CCGGCACC, for which the binding signal (normalized occupancy) came out at 0.0757.
The figure for ACATGGCC is 0.0878; for ATTGAAGC it is 0.0724.
The figure for CCCACCCG is 0.0829; for CAATCGTA it is 0.0786; for AAAGAGTC it is 0.0701.
With GCTACTAA the figure was 0.0759; with ATTAAATC, 0.0755.
CACCCGCA: the binding signal (normalized occupancy) is 0.0723.
With CGTGTTCC the figure was 0.083; with CAGTCATA, 0.0793; with CCGACAGG, 0.0726.
With GCATTCTA the figure was 0.0844.
The figure for CTGCAAGA is 0.0702; for ACATAGGT it is 0.075.
For AAAGCACG, the binding signal (normalized occupancy) was found to be 0.0922.
With ACGTTATC the figure was 0.0926.
The figure for AAGATTCT is 0.0678; for ACAGGAGA it is 0.0792; for AACAATGC it is 0.0816.
The figure for GCAAGTTA is 0.0701; for ATGATAAG it is 0.0844.
On to TAGATAGA, for which the binding signal (normalized occupancy) was found to be 0.0741.
Regarding GACTCCTA, the binding signal (normalized occupancy) is 0.0736.
The figure for CAGTCGCA is 0.0738; for CCCGTGCC it is 0.0787; for CATTGGTC it is 0.0741.
The figure for TAAATAGA is 0.076; for ATCGAATC it is 0.0788; for TCAGCTGA it is 0.0752.
With AACCCAGA the figure was 0.0685.
Regarding TACCGCTA, the binding signal (normalized occupancy) is 0.0749.
On to AGTAAAGA, for which the binding signal (normalized occupancy) was determined as 0.0733.
The figure for CCATTTAG is 0.0773.
The figure for AACATACC is 0.086; for TATGTCAA it is 0.0833.
The figure for AAGTTTTG is 0.0696; for ACGAAATA it is 0.0748; for ATAGAAGC it is 0.0772.
In the case of AGAACTCC, the binding signal (normalized occupancy) was found to be 0.0751.
With CGGGCGGC the figure was 0.0664; with GAGCAAGA, 0.0711.
With TCTATTAA the figure was 0.0774.
The figure for AGCTCCTA is 0.0717.
On to AGGAACCC, for which the binding signal (normalized occupancy) was determined as 0.0717.
The figure for GAAATCCA is 0.0736; for ATTCGATC it is 0.078; for CCAATAGG it is 0.0767.
With ACTGTCAC the figure was 0.0768.
With ATTGTAGA the figure was 0.0778.
On to TCTAGCAA, for which the binding signal (normalized occupancy) was found to be 0.0728.
With TCTACTAA, the binding signal (normalized occupancy) was 0.0805.
With ACTCAATA the figure was 0.0757; with ATCTTGAA, 0.0767.
The figure for CGCATAAA is 0.0847; for ACGTTTAA it is 0.0766.
With GAGTAATA the figure was 0.075.
For CATCAGAG, the binding signal (normalized occupancy) is 0.0721.
With CTCGAACA the figure was 0.075; with CTATGCGC, 0.075.
With CCGGTTTC the figure was 0.0693; with CTTACAAC, 0.0757.
For ACTAGTGA, the binding signal (normalized occupancy) was found to be 0.0727.
On to GATAGTTA, for which the binding signal (normalized occupancy) is 0.0809.
With AACCGTAA the figure was 0.0755; with CACTGACA, 0.0741; with AGATCCAG, 0.0704.
Regarding ATTCGAGA, the binding signal (normalized occupancy) is 0.0811.
With CTGACACA the figure was 0.0841; with CAGCCGCG, 0.0729.
In the case of ACGCTTAA, the binding signal (normalized occupancy) stood at 0.0769.
With AAGGGTCC the figure was 0.0698; with GGTCCACA, 0.0842.
In the case of GTTCCCGA, the binding signal (normalized occupancy) was 0.0705.
With AGCAGCGG the figure was 0.0754; with TAGTTGCA, 0.0712; with CGAAAGCA, 0.0741.
The figure for ATAAACAG is 0.0716; for CCTTACTC it is 0.0769.
The figure for ATCTGCCC is 0.0754; for CAATTAGG it is 0.0717; for ATCTACCA it is 0.0834.
As for CGCTTCTC, the binding signal (normalized occupancy) was 0.0721.
With CGAGGATC the figure was 0.0785; with AGGGGCAT, 0.0893.
With GACAGCTA the figure was 0.0749.
Regarding GACAATCA, the binding signal (normalized occupancy) stood at 0.0761.
The figure for CTCGCGAA is 0.071; for GCCATTGA it is 0.0698; for ACCCGTTA it is 0.0747.
With CCTTCCAG the figure was 0.0698; with ATGCATGC, 0.126; with ATGGACGA, 0.0815.
With AAGCCAGT the figure was 0.0699; with AGCTGTCG, 0.0737.
In the case of AAGCAATT, the binding signal (normalized occupancy) is 0.0685.
The figure for GTTTCGAA is 0.0702; for GTACTAAA it is 0.0741.
With GGATTTCA the figure was 0.0701.
With AGATGGAG the figure was 0.0771; with CCGGCTAG, 0.0632; with AGTCCACT, 0.0773.
